From a collection of fitness landscapes (doi:10.1016/j.celrep.2020.107928)
The full ranking holds about 81,000 sequences; the median of “one-hybrid fitness for binding parS DNA” is about -0.17, and the highest 2% start at about 0.51. The list shows a part of the results.

B1: Caulobacter ParB omega fusion; a variant is named by its letters at X, in order, B8GW30 (parent)
chain: MESVVVGEPGMSEGRRGLGRGLSALLGEVDAAPAQAPGEQLGGSREAPIEILQRNPDQPRRTFREEDLEDLSNSIREKGVLQPILVRPSPDTAGEYQIVAGERAWRAAQRAGLKTVPIMVRELDDLAVLEIGIIENVQRADLNVLEEALSYKVLMEKFERTQENIAQTIGKSXSHVANXMRLLXLPDEVQSYLVSGELTAXHARAIAAAADPVALAKQIIEGGLSVRETEALARKAPNLSAGKSKGGRPPRVKDTDTQALESDLSSVLGLDVSIDHRGSTGTLTITYATLEQLDDLCNRLTRGI

Variants of: B1
Assay: one-hybrid fitness for binding parS DNA (scaled: cognate 1, non-cognate 0); higher = stronger binding
Conditions: with parS DNA site
Summary of the method: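 Fitness is the rescaled log change in variant-to-wild-type read ratio, measured by Illumina sequencing of plasmids before and after bacterial one-hybrid selection. The scale puts cognate at 1 and non-cognate at 0. Selection of Caulobacter ParB libraries, four specificity codons randomised, took place in E. coli USO with a HIS3 reporter, site 19 bp from the promoter, over 48 hours at 37°C on M9-minus-histidine with 0.1 mM IPTG and 5 mM 3-AT.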

Variant | one-hybrid fitness for binding parS DNA
EIGN | ≤ 0.2
ETLW | ≤ 0.2
PDYE | ≤ 0.2
ERIT | ≤ 0.2
QSHM | ≤ 0.2
VTSP | ≤ 0.2
WDKC | ≤ 0.2
QRVD | ≤ 0.2
HDTA | ≤ 0.2
GYER | ≤ 0.2
EAIP | ≤ 0.2
HAVF | ≤ 0.2
TCKI | ≤ 0.2
CVHT | ≤ 0.2
VEKL | ≤ 0.2
PQTN | ≤ 0.2
SNLD | ≤ 0.2
VNRR | ≤ 0.2
HPVF | ≤ 0.2
TRWA | ≤ 0.2
GRSL | ≤ 0.2
KHLG | ≤ 0.2
CPIR | ≤ 0.2
PATS | ≤ 0.2

Variant | one-hybrid fitness for binding parS DNA
WGTS | ≤ 0.2
LMYR | ≤ 0.2
IGKT | ≤ 0.2
WIPV | ≤ 0.2
SHAL | ≤ 0.2
YSVG | ≤ 0.2
PWGR | ≤ 0.2
NDCR | ≤ 0.2
EFPA | ≤ 0.2
RYIS | 0.939
ETLT | ≤ 0.2
HLCF | ≤ 0.2
CSKV | ≤ 0.2
RGVC | 0.445
HPHR | ≤ 0.2
WIGV | ≤ 0.2
MQNF | ≤ 0.2
KYKC | ≤ 0.2
YVSC | ≤ 0.2
TWNG | ≤ 0.2
MPYR | ≤ 0.2
EHLR | ≤ 0.2
RSSM | 0.327
LWNS | ≤ 0.2

Variant | one-hybrid fitness for binding parS DNA
ITWG | ≤ 0.2
QFPA | ≤ 0.2
INLF | 0.225
HQLC | ≤ 0.2
KFTT | ≤ 0.2
LHGL | ≤ 0.2
QIKA | ≤ 0.2
ARTG | ≤ 0.2
CTHG | ≤ 0.2
KPET | ≤ 0.2
GESD | ≤ 0.2
AKLN | ≤ 0.2
MAKD | ≤ 0.2
AINP | ≤ 0.2
MYHL | ≤ 0.2
CGNA | ≤ 0.2
MSWS | ≤ 0.2
RWYM | ≤ 0.2
ISGL | ≤ 0.2
QMQQ | ≤ 0.2
TDDM | ≤ 0.2
VRVG | ≤ 0.2
CPPK | ≤ 0.2
QVDF | ≤ 0.2

Variant | one-hybrid fitness for binding parS DNA
PPIT | ≤ 0.2
VKAP | ≤ 0.2
TERW | ≤ 0.2
AECS | ≤ 0.2
PVTD | ≤ 0.2
KFPR | ≤ 0.2
TRCN | ≤ 0.2
RWIR | ≤ 0.2
AMSA | ≤ 0.2
QGCG | ≤ 0.2
RDFS | ≤ 0.2
RAHN | 0.481
GVHL | ≤ 0.2
MNLG | ≤ 0.2
APLY | ≤ 0.2
YRST | ≤ 0.2
IMQT | ≤ 0.2
EDNK | ≤ 0.2
ARTT | ≤ 0.2
GTFA | ≤ 0.2
KQLI | ≤ 0.2
ETPR | ≤ 0.2
QMKM | ≤ 0.2
DPVD | ≤ 0.2

Variant | one-hybrid fitness for binding parS DNA
LSEF | ≤ 0.2
HSPP | ≤ 0.2
HQMF | ≤ 0.2
LLNM | ≤ 0.2
NTPI | ≤ 0.2
KEGT | ≤ 0.2
KRMK | ≤ 0.2
DQDS | ≤ 0.2
STRY | ≤ 0.2
SNTS | ≤ 0.2
NSDV | ≤ 0.2
PQLE | ≤ 0.2
TCIG | ≤ 0.2
SYRY | ≤ 0.2
SRGP | ≤ 0.2
RMCR | ≤ 0.2
GQGR | ≤ 0.2
SEKS | ≤ 0.2
INTS | ≤ 0.2
GPIQ | ≤ 0.2
TCPL | ≤ 0.2
PRKV | ≤ 0.2
SKAD | ≤ 0.2
NLLD | ≤ 0.2

Variant | one-hybrid fitness for binding parS DNA
PCNY | ≤ 0.2
TRPR | ≤ 0.2
NGWG | ≤ 0.2
LHNF | ≤ 0.2
RQSA | 0.575
QQCM | ≤ 0.2
SSGN | ≤ 0.2
AIRI | ≤ 0.2
VISS | ≤ 0.2
LHTV | ≤ 0.2
EALQ | ≤ 0.2
LFNT | ≤ 0.2
KMDY | ≤ 0.2
ALTG | ≤ 0.2
KLRW | ≤ 0.2
LPVL | ≤ 0.2
AGKK | ≤ 0.2
PRTF | ≤ 0.2
QCTA | ≤ 0.2
RKRR | ≤ 0.2
HNQG | ≤ 0.2
DLES | ≤ 0.2
MNER | ≤ 0.2
HTCW | ≤ 0.2

Variant | one-hybrid fitness for binding parS DNA
LHTN | ≤ 0.2
KPTL | ≤ 0.2
HAVL | ≤ 0.2
TWMI | ≤ 0.2
ADRR | ≤ 0.2
RSTM | 0.318
TLIC | ≤ 0.2
RTCS | 0.99
INTT | ≤ 0.2
MNTF | ≤ 0.2
ARGS | ≤ 0.2
RVFV | ≤ 0.2
TTEL | ≤ 0.2
VDSD | ≤ 0.2
RNNP | ≤ 0.2
TLVE | ≤ 0.2
RYID | ≤ 0.2
HYYC | ≤ 0.2
VWLN | ≤ 0.2
CEHV | ≤ 0.2
QVGK | ≤ 0.2
YIYT | ≤ 0.2
IQMS | ≤ 0.2
PIHE | ≤ 0.2

Variant | one-hybrid fitness for binding parS DNA
HTLV | ≤ 0.2
QKST | ≤ 0.2
THNT | ≤ 0.2
LQNP | ≤ 0.2
PDLI | ≤ 0.2
GSPG | ≤ 0.2
TRYN | ≤ 0.2
SSND | ≤ 0.2
GHYV | ≤ 0.2
ASAI | ≤ 0.2
TGDC | ≤ 0.2
WAMA | ≤ 0.2
HDSS | ≤ 0.2
RTHV | ≤ 0.2
TYQF | ≤ 0.2
GAMR | ≤ 0.2
RKNS | 0.766
QMKP | ≤ 0.2
PGYV | ≤ 0.2
QVPQ | ≤ 0.2
MQKA | ≤ 0.2
WLKA | ≤ 0.2
RMMT | 0.874
PTCL | ≤ 0.2

Variant | one-hybrid fitness for binding parS DNA
FRAL | ≤ 0.2
LWLR | ≤ 0.2
KDKR | ≤ 0.2
QMFL | ≤ 0.2
PAHC | ≤ 0.2
VYSF | ≤ 0.2
SMIY | ≤ 0.2
DQLH | ≤ 0.2
SCSL | ≤ 0.2
WRWC | ≤ 0.2
WWLP | ≤ 0.2
SDPT | ≤ 0.2
AQYC | ≤ 0.2
LETC | ≤ 0.2
NSPM | ≤ 0.2
HVKH | ≤ 0.2
QADN | ≤ 0.2
TFIT | ≤ 0.2
YGYS | ≤ 0.2
RYVD | ≤ 0.2
GPAN | ≤ 0.2
TCFS | ≤ 0.2
HTGI | ≤ 0.2
FYQC | ≤ 0.2

Variant | one-hybrid fitness for binding parS DNA
ENMG | ≤ 0.2
TSRD | ≤ 0.2
QFMY | ≤ 0.2
LMSE | ≤ 0.2
SHPV | ≤ 0.2
ATAY | ≤ 0.2
GASM | ≤ 0.2
PKYL | ≤ 0.2
AWYR | ≤ 0.2
SWIT | ≤ 0.2
TRGV | ≤ 0.2
ALHD | ≤ 0.2
FFPT | ≤ 0.2
NMRS | ≤ 0.2
MWRT | ≤ 0.2
RCAR | ≤ 0.2
LSPS | ≤ 0.2
LPPF | ≤ 0.2
MFES | ≤ 0.2
HSHE | ≤ 0.2
RSTQ | ≤ 0.2
RAMV | ≤ 0.2
ETVR | ≤ 0.2
FAYR | ≤ 0.2

Variant | one-hybrid fitness for binding parS DNA
TCTI | ≤ 0.2
LARM | ≤ 0.2
CNPF | ≤ 0.2
KNLA | ≤ 0.2
QITL | ≤ 0.2
HHHR | ≤ 0.2
LDVK | ≤ 0.2
MPAK | ≤ 0.2
KTSI | ≤ 0.2
WTKR | ≤ 0.2
YDTH | ≤ 0.2
QFRS | ≤ 0.2
RNPW | ≤ 0.2
SRRV | ≤ 0.2
QKYM | ≤ 0.2
SRFG | ≤ 0.2
RTKK | ≤ 0.2
EIYR | ≤ 0.2
SYMC | ≤ 0.2
VAYG | ≤ 0.2
FQSS | ≤ 0.2
TSEV | ≤ 0.2
YPLT | ≤ 0.2
CGLT | ≤ 0.2

Variant | one-hybrid fitness for binding parS DNA
RRID | ≤ 0.2
NRCS | ≤ 0.2
HGVR | ≤ 0.2
CKYS | ≤ 0.2
FSST | ≤ 0.2
HFGG | ≤ 0.2
MVQS | ≤ 0.2
MMES | ≤ 0.2
DKST | ≤ 0.2
RNNF | ≤ 0.2
QILR | ≤ 0.2
RSYY | 0.457
TKTA | ≤ 0.2
SVYL | ≤ 0.2
VRWL | ≤ 0.2
FGGG | ≤ 0.2
WQAC | ≤ 0.2
LDGA | ≤ 0.2
PTYS | ≤ 0.2
HERR | ≤ 0.2
CYQC | ≤ 0.2
AAGY | ≤ 0.2
YFVS | ≤ 0.2
WKTC | ≤ 0.2

Variant | one-hybrid fitness for binding parS DNA
SYWL | ≤ 0.2
WSQS | ≤ 0.2
ACAS | ≤ 0.2
RLTE | ≤ 0.2
MCVR | ≤ 0.2
REAY | ≤ 0.2
KTPK | ≤ 0.2
ARMR | ≤ 0.2
GTPD | ≤ 0.2
VLCV | ≤ 0.2
VYTF | ≤ 0.2
SLKP | ≤ 0.2
LLHP | ≤ 0.2
FWRE | ≤ 0.2
PNKI | ≤ 0.2
VAWH | ≤ 0.2
PPVE | ≤ 0.2
TTYD | ≤ 0.2
